{
  "source": "the supplement of paper PMC4967469",
  "note": "By IC50 is meant the dose at which the fit gives 50% viability; a fit beyond the top or the lowest dose is shown as a bound at that dose. AUC, from the same fit, is the share of area under the viability curve across the 256-fold dose range; values near 1 show little effect. Where the top dose is marked as inferred, it was calculated from the reported fits.",
  "data": [
    {"compound": "COc1ncc(-c2ccc3nccc(-c4ccnnc4)c3c2)cc1NS(=O)(=O)c1ccc(F)cc1F [GSK2126458]", "assay": "Viability of human cancer cell lines after 72 h of drug (GDSC screen)", "details": "top dose inferred", "protocol": "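Human cancer cell lines in 384-well plates, medium with 10% serum, drug for 72 h over a 256-fold dose range (nine 2-fold or five 4-fold steps up to the top dose). Adherent lines were fixed and stained with the nucleic acid dye Syto60, suspension lines read with resazurin; signal relative to control wells, capped at 0 and 100%. One two-parameter sigmoid per drug and line, fitted in a mixed model over all curves with the slope shared within a line.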", "units": {"IC50": "nM"}, "values": [
      {"cell line": "NH-12 (neuroblastoma, adherent, top dose 0.128 µM)", "AUC": 0.371, "IC50": 3.38},
      {"cell line": "NKM-1 (acute myeloid leukaemia, suspension, top dose 0.128 µM)", "AUC": 0.254, "IC50": 1.54},
      {"cell line": "NMC-G1 (glioma, adherent, top dose 0.128 µM)", "AUC": 0.649, "IC50": 22.8},
      {"cell line": "NOMO-1 (acute myeloid leukaemia, suspension, top dose 0.128 µM)", "AUC": 0.459, "IC50": 6.09},
      {"cell line": "NOS-1 (osteosarcoma, adherent, top dose 0.128 µM)", "AUC": 0.285, "IC50": 1.7},
      {"cell line": "NTERA-2 cl.D1 (testis, adherent, top dose 0.128 µM)", "AUC": 0.74, "IC50": 38.5},
      {"cell line": "NU-DUL-1 (B-cell lymphoma, suspension, top dose 0.128 µM)", "AUC": 0.104, "IC50": 0.624},
      {"cell line": "NUGC-3 (stomach, adherent, top dose 0.128 µM)", "AUC": 0.852, "IC50": 118},
      {"cell line": "NUGC-4 (stomach, adherent, top dose 0.128 µM)", "AUC": 0.972, "IC50": "> 128"},
      {"cell line": "NY (osteosarcoma, adherent, top dose 0.128 µM)", "AUC": 0.974, "IC50": "> 128"},
      {"cell line": "OACM5-1 (oesophagus, semi-adherent, top dose 0.128 µM)", "AUC": 0.333, "IC50": 2.57},
      {"cell line": "OACp4C (oesophagus, adherent, top dose 0.128 µM)", "AUC": 0.299, "IC50": 1.92},
      {"cell line": "OAW-28 (ovary, adherent, top dose 0.128 µM)", "AUC": 0.65, "IC50": 23.3},
      {"cell line": "OAW-42 (ovary, adherent, top dose 0.128 µM)", "AUC": 0.477, "IC50": 6.9},
      {"cell line": "OC-314 (ovary, adherent, top dose 0.128 µM)", "AUC": 0.708, "IC50": 27.9},
      {"cell line": "OCI-AML2 (acute myeloid leukaemia, suspension, top dose 0.128 µM)", "AUC": 0.857, "IC50": 65},
      {"cell line": "OCI-AML3 (acute myeloid leukaemia, suspension, top dose 0.128 µM)", "AUC": 0.571, "IC50": 12.1},
      {"cell line": "OCI-AML5 (acute myeloid leukaemia, suspension, top dose 0.128 µM)", "AUC": 0.329, "IC50": 2.79},
      {"cell line": "OCI-LY-19 (B-cell lymphoma, suspension, top dose 0.128 µM)", "AUC": 0.255, "IC50": 1.7},
      {"cell line": "OCI-M1 (acute myeloid leukaemia, suspension, top dose 0.128 µM)", "AUC": 0.337, "IC50": 3.18},
      {"cell line": "OCUB-M (breast, adherent, top dose 0.128 µM)", "AUC": 0.365, "IC50": 3.6},
      {"cell line": "OCUM-1 (stomach, adherent, top dose 0.128 µM)", "AUC": 0.907, "IC50": "> 128"},
      {"cell line": "OE19 (oesophagus, adherent, top dose 0.128 µM)", "AUC": 0.976, "IC50": "> 128"},
      {"cell line": "OE21 (oesophagus, adherent, top dose 0.128 µM)", "AUC": 0.841, "IC50": "> 128"},
      {"cell line": "OE33 (oesophagus, adherent, top dose 0.128 µM)", "AUC": 0.825, "IC50": 97.1},
      {"cell line": "OMC-1 (cervix, adherent, top dose 0.128 µM)", "AUC": 0.728, "IC50": 36.9},
      {"cell line": "ONS-76 (medulloblastoma, adherent, top dose 0.128 µM)", "AUC": 0.736, "IC50": 40},
      {"cell line": "OPM-2 (myeloma, suspension, top dose 0.128 µM)", "AUC": 0.673, "IC50": 21.9},
      {"cell line": "OS-RC-2 (kidney, adherent, top dose 0.128 µM)", "AUC": 0.633, "IC50": 22},
      {"cell line": "OSC-19 (head and neck, adherent, top dose 0.128 µM)", "AUC": 0.71, "IC50": 32.3},
      {"cell line": "OSC-20 (head and neck, adherent, top dose 0.128 µM)", "AUC": 0.759, "IC50": 52.7},
      {"cell line": "OV-7 (ovary, adherent, top dose 0.128 µM)", "AUC": 0.646, "IC50": 25.1},
      {"cell line": "OV-17R (ovary, adherent, top dose 0.128 µM)", "AUC": 0.763, "IC50": 64.7},
      {"cell line": "OV-56 (ovary, adherent, top dose 0.128 µM)", "AUC": 0.823, "IC50": 71.1},
      {"cell line": "OV-90 (ovary, adherent, top dose 0.128 µM)", "AUC": 0.843, "IC50": "> 128"},
      {"cell line": "OVCA420 (ovary, adherent, top dose 0.128 µM)", "AUC": 0.915, "IC50": "> 128"},
      {"cell line": "OVCA433 (ovary, adherent, top dose 0.128 µM)", "AUC": 0.899, "IC50": "> 128"},
      {"cell line": "OVCAR-3 (ovary, adherent, top dose 0.128 µM)", "AUC": 0.987, "IC50": "> 128"},
      {"cell line": "OVCAR-4 (ovary, adherent, top dose 0.128 µM)", "AUC": 0.734, "IC50": 52.8},
      {"cell line": "OVCAR-5 (ovary, adherent, top dose 0.128 µM)", "AUC": 0.676, "IC50": 27.6},
      {"cell line": "OVCAR-8 (ovary, adherent, top dose 0.128 µM)", "AUC": 0.681, "IC50": 24},
      {"cell line": "OVISE (ovary, adherent, top dose 0.128 µM)", "AUC": 0.441, "IC50": 5.23},
      {"cell line": "OVK-18 (ovary, adherent, top dose 0.128 µM)", "AUC": 0.823, "IC50": 86.3},
      {"cell line": "OVKATE (ovary, adherent, top dose 0.128 µM)", "AUC": 0.824, "IC50": "> 128"},
      {"cell line": "OVMIU (ovary, adherent, top dose 0.128 µM)", "AUC": 0.296, "IC50": 1.83},
      {"cell line": "OVTOKO (ovary, adherent, top dose 0.128 µM)", "AUC": 0.72, "IC50": 40.3},
      {"cell line": "P12-ICHIKAWA (T-cell lymphoblastic leukaemia, suspension, top dose 1.024 µM)", "AUC": 0.556, "IC50": 87.8},
      {"cell line": "P30-OHK (lymphoblastic leukaemia, suspension, top dose 0.128 µM)", "AUC": 0.196, "IC50": 1.24},
      {"cell line": "P31-FUJ (acute myeloid leukaemia, suspension, top dose 0.128 µM)", "AUC": 0.952, "IC50": "> 128"},
      {"cell line": "P32-ISH (Burkitt lymphoma, suspension, top dose 0.128 µM)", "AUC": 0.535, "IC50": 9.72},
      {"cell line": "PA-1 (ovary, adherent, top dose 0.128 µM)", "AUC": 0.274, "IC50": 2.17},
      {"cell line": "PA-TU-8902 (pancreas, adherent, top dose 0.128 µM)", "AUC": 0.491, "IC50": 7.51},
      {"cell line": "PA-TU-8988T (pancreas, adherent, top dose 0.128 µM)", "AUC": 0.761, "IC50": 45.8},
      {"cell line": "PANC-02-03 (pancreas, adherent, top dose 0.128 µM)", "AUC": 0.689, "IC50": 30.5},
      {"cell line": "PANC-03-27 (pancreas, adherent, top dose 0.128 µM)", "AUC": 0.557, "IC50": 11.3},
      {"cell line": "PANC-04-03 (pancreas, adherent, top dose 0.128 µM)", "AUC": 0.914, "IC50": "> 128"},
      {"cell line": "PANC-08-13 (pancreas, adherent, top dose 0.128 µM)", "AUC": 0.421, "IC50": 4.56},
      {"cell line": "PANC-10-05 (pancreas, adherent, top dose 0.128 µM)", "AUC": 0.481, "IC50": 7.01},
      {"cell line": "PC-3 (prostate, adherent, top dose 0.128 µM)", "AUC": 0.689, "IC50": 30.6},
      {"cell line": "PC-3 [JPC-3] (lung adenocarcinoma, adherent, top dose 0.128 µM)", "AUC": 0.751, "IC50": 54.8},
      {"cell line": "PC-14 (lung adenocarcinoma, adherent, top dose 0.128 µM)", "AUC": 0.81, "IC50": 58.6},
      {"cell line": "PCI-4B (head and neck, adherent, top dose 0.128 µM)", "AUC": 0.594, "IC50": 14.3},
      {"cell line": "PCI-6A (head and neck, adherent, top dose 0.128 µM)", "AUC": 0.748, "IC50": 40.4},
      {"cell line": "PCI-15A (head and neck, adherent, top dose 0.128 µM)", "AUC": 0.758, "IC50": 44.6},
      {"cell line": "PCI-30 (head and neck, adherent, top dose 0.128 µM)", "AUC": 0.942, "IC50": "> 128"},
      {"cell line": "PCI-38 (head and neck, adherent, top dose 0.128 µM)", "AUC": 0.921, "IC50": "> 128"},
      {"cell line": "PE/CA-PJ15 (head and neck, adherent, top dose 0.128 µM)", "AUC": 0.853, "IC50": 113},
      {"cell line": "PEO1 (ovary, adherent, top dose 0.128 µM)", "AUC": 0.987, "IC50": "> 128"},
      {"cell line": "PF-382 (T-cell lymphoblastic leukaemia, suspension, top dose 1.024 µM)", "AUC": 0.25, "IC50": 13.8},
      {"cell line": "PFSK-1 (medulloblastoma, adherent, top dose 0.128 µM)", "AUC": 0.611, "IC50": 16.5},
      {"cell line": "PL4 (pancreas, adherent, top dose 0.128 µM)", "AUC": 0.891, "IC50": "> 128"},
      {"cell line": "PL18 (pancreas, adherent, top dose 0.128 µM)", "AUC": 0.799, "IC50": 60.7},
      {"cell line": "PL-21 (acute myeloid leukaemia, suspension, top dose 0.128 µM)", "AUC": 0.278, "IC50": 1.67},
      {"cell line": "PSN1 (pancreas, adherent, top dose 0.128 µM)", "AUC": 0.783, "IC50": 45},
      {"cell line": "QGP-1 (pancreas, adherent, top dose 0.128 µM)", "AUC": 0.709, "IC50": 45.3},
      {"cell line": "QIMR-WIL (acute myeloid leukaemia, suspension, top dose 0.128 µM)", "AUC": 0.277, "IC50": 1.91},
      {"cell line": "RC-K8 (B-cell lymphoma, suspension, top dose 0.128 µM)", "AUC": 0.973, "IC50": "> 128"},
      {"cell line": "RCC10RGB (kidney, adherent, top dose 0.128 µM)", "AUC": 0.878, "IC50": "> 128"},
      {"cell line": "RCC-AB (kidney, adherent, top dose 0.128 µM)", "AUC": 0.521, "IC50": 9.31},
      {"cell line": "RCC-ER (kidney, adherent, top dose 0.128 µM)", "AUC": 0.843, "IC50": 107}
    ]}
  ]
}
